≈ marks a conversion by molar mass, not a printed value.

The conditions of this data set: buffer; pH 7.4; 200.0 µM.
In general, kinetic solubility refers to solubility judged after dilution from a stock solution rather than from solid. In turn, `O=C(O)c1ccc(Cl)c(NCc2cccnc2)c1` displayed a kinetic solubility of 34.6 µg/mL (≈ 132 µM). The figure for `CC(CN(C)C1CCN(C)CC1)c1ccccc1` (stereo not drawn) is 29 µg/mL (≈ 118 µM); for `Cc1cccc(N2CC(C(=O)NCc3ccco3)CC2=O)c1C` (stereo not drawn) it is above 46.9 µg/mL; for `CCC(NC(=O)C1C2C=CC(C2)C1C(=O)O)c1ccc(C)cc1` (stereo not drawn) it is above 47 µg/mL. The figure for `Cc1ccc(-c2onc3ccc(C(=O)O)cc23)cc1` is above 38 µg/mL. With `O=C(COC(=O)CCc1ccccc1)Nc1ccc(F)cc1Cl`, the kinetic solubility amounted to 13.6 µg/mL (≈ 40.5 µM). For the compound `O=C1C2C3C=CC(CC3)C2C(=O)N1c1cccc(C(F)(F)F)c1` (stereo not drawn), the solubility (kinetic) was below 0.7 µg/mL. As for `Cc1csc(SCC(=O)NC2CCC(C)CC2)n1` (stereo not drawn), the figure is above 42.7 µg/mL; as for `Cn1c(SCC(=O)Nc2ccc(C(=O)O)cc2)nc2scc(-c3ccccc3Cl)c2c1=O`, above 72.9 µg/mL. The figure for `CCc1ccc(OCC(=O)NC(=S)Nc2ccc(C(=O)O)cc2)cc1` is 14.2 µg/mL (≈ 39.6 µM). As for `N#C/C(=C/c1cccnc1)c1ccccc1`, the figure is 26 µg/mL (≈ 126 µM). As for `Cc1c(-c2ccc(F)cc2)nc(N)c(C#N)c1-c1cccnc1`, the solubility (kinetic) worked out at 3.3 µg/mL (≈ 10.8 µM). As for `Cc1ccc(C)c(S(=O)(=O)NC(C)CCc2ccccc2)c1` (stereo not drawn), the figure is 4.7 µg/mL (≈ 14.8 µM).

The record behind these values is PubChem BioAssay AID1996.
